According to the RNAGym collection of RNA variant scans (doi:10.1073/pnas.2313332121):
Variants at the background level are over-represented here.

B1: TPR 5TU (parent)
chain: GGAUCUUCUCGAUCUAACAAAAAAGACAAAUCUGCCACAAAGCUUGAGAGCAUCUUCGGAUGCAGAGGCGGCAGCCUUCGGUGGCGCGAUAGCGCCAACGUUCUCAACUAUGACACGCAAAACGCGUGCUCCGUUGAAUGGAGUUUAUCAUG

Variants of: B1
Assay: polymerase ribozyme fitness, log enrichment relative to wild type (log ratio); higher = more active; in vitro selection for triplet polymerase activity
Summary of the method: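 Mutant libraries of both subunits of a heterodimeric triplet polymerase ribozyme were PCR-built, transcribed, and selected once in triplicate, with frozen incubation at −7 °C and capture of gel-excised extended constructs on streptavidin beads before RT-PCR. Illumina sequencing of input and output libraries was filtered to genotypes with ≥10 input reads and ≥1 read per output. Fitness is the logarithm of genotype enrichment over wild-type enrichment, using inverse-variance-weighted replicate averages. The logarithm is base 2.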

Point of comparison: C54G A142U, “polymerase ribozyme fitness (log ratio)” value -1.98. Against it:
- A52G G58U G74C A147C — lower, ≤ -4.2
- A52G U56G C87U A120G U134G G140C U148A — lower, ≤ -4.2
- A52G C87G A98C A122U U145C — lower, ≤ -4.2
- A52G G141A — higher, -1.24
- C54A G141A — higher, -0.156
- U53A U56A — lower, -2.45
- A52C G58A A147U — higher, -0.233
- A52G G83U U101A A115U — lower, -3.39
- U53A A97C — higher, -0.583
- U53A C85U C103G A138G — lower, ≤ -4.2
- C54A A64U U90C A91C — lower, ≤ -4.2
- U53G G84A — lower, -2.52
- A52G A73G C85U — higher, -0.163
- U53A C54A G74A C76U G88A C95G A121U U146C — lower, ≤ -4.2
- U53A G81U G88A A115G A147U — lower, ≤ -4.2
- C54A C99A G141U — lower, -2.47
- A52G U56A A91U G140A — lower, ≤ -4.2
- C54G U55A A89U C118G A142C — lower, -3.87
- U53A C54A A147C — lower, -2.75
- C54G A138U — lower, ≤ -4.2
- A52U C116A — higher, 0.243
- U53A G86C C103G — lower, ≤ -4.2
- A52U G83A C95U — lower, -3.78
- A52U G84U G86A A91U A121U — lower, ≤ -4.2
- A52U A60G C108U A150C — lower, ≤ -4.2
- A52G C75A A91G C149A — lower, ≤ -4.2
- U53A G84C C99A U111A — lower, ≤ -4.2
- C54A A89U G92C A121U — lower, -3
- C54A G88C — lower, -3.99
- C54A C103A G128A C129U — lower, ≤ -4.2
- C54A U104A C131U — within 0.2 log units, -2.14
- U53A U55G C93U A97U A106U G141C C149A — lower, ≤ -4.2
- A52C U55A G62C G84A C105U C114U G141A C149A — lower, ≤ -4.2
- U53A A64G A91G C108U — lower, ≤ -4.2
- A52C C75U A97U U109G C114A — lower, -3.53
- U53A C54G — lower, -2.2
- A52U G67A G68A G83A C103G — lower, ≤ -4.2
- U53A C69U G83A C85U A98G U111C G126C G141A — lower, ≤ -4.2
- C54A C108G U139A — lower, ≤ -4.2
- A52C G68U — lower, ≤ -4.2
- A52G G62C C79G A89U G94C U104G — lower, ≤ -4.2
- U53A G59C C76G C85U A89C A97C A107U G117U G133A U139G — lower, ≤ -4.2
- A52U C93A U139G — lower, ≤ -4.2
- U53A C57U C87G G124A U135A — lower, ≤ -4.2
- A52C G88A G94C C95U A98U C123U C125U — lower, ≤ -4.2
- C54A U90A — lower, ≤ -4.2
- A52G G71U — lower, -2.58
- U53G G62C C85U U109C — lower, ≤ -4.2
- U53G C87G G133U — lower, ≤ -4.2
- C54A C95U A119G C125G A150G — lower, ≤ -4.2
- A52G U56A G58A U77A C95A A137G — lower, ≤ -4.2
- C54G G58A C79U G86U C87U C93A U135A G136C — lower, ≤ -4.2
- A52C U61C A73G C85U U135A — lower, ≤ -4.2
- C54G C57U A73U C96G — lower, ≤ -4.2
- A52G C54G G67C G81A C95G — lower, -3.86
- U53A U77C G92U C108G C149U — lower, ≤ -4.2
- A52G G83C C105A — lower, -2.55
- C54G C57U C76A C95U C105A C129A — lower, ≤ -4.2
- C54G G71A G84U U102C C125U U146C U151C — lower, ≤ -4.2
- U53A C57U C93U U111G G112C G136A U146A — lower, ≤ -4.2
- U53A C76U G83A — higher, -1.6
- U53A C76A — lower, -2.19
- C54G C57A A66C A91U G92A U104C A120C G136U G140A — lower, ≤ -4.2
- C54A G94C A138C — lower, ≤ -4.2
- C54G G80C G81A C85U C129A U135C — lower, ≤ -4.2
- U53G C72G C108G C116A — lower, ≤ -4.2
- U53A C57A U151G — lower, ≤ -4.2
- A52C G80C — lower, ≤ -4.2
- C54U C57A — higher, -0.253
- A52C C85A A106U C116A C118U — lower, ≤ -4.2
- C54A G67U — lower, -4
- U53A G62C C87A C116A G136U U139C U148C — lower, ≤ -4.2
- C54G A91U A147G U148G — lower, ≤ -4.2
- C54G C96U C123G — higher, -1.53
- U53A C93U G140C — lower, ≤ -4.2
- C54U C57U C79A C85U C93G A107G C123G — lower, ≤ -4.2
- C54U C76A G83A A89U A113U G124C — lower, ≤ -4.2
- A52C U78G G88U A113U A115U C118U A137C A150U — lower, ≤ -4.2
- A52G G65C — lower, ≤ -4.2
- A52G G74C C96U U144G — lower, ≤ -4.2
- U53A U130G A142C — higher, -0.549
- A52C U53A C85G G117A G141A — lower, ≤ -4.2
- A52U G68U C87A U102G C108G G141C A150C — lower, ≤ -4.2
- C54G G86U G100C G140C U144A — lower, ≤ -4.2
- U53A U55G C57A — higher, 0.733
- A52G C54U A89U A91U C118U — lower, ≤ -4.2
- U53C C76A A107G C108A C149U — lower, ≤ -4.2
- U53C C57G C125U G143A — lower, -3.67
- C54U C69U C85U A110G G141C — lower, ≤ -4.2
- A52U C85A — lower, ≤ -4.2
- A52U C57U C76U A121U A122G U151G — lower, ≤ -4.2
- A52U U53G G84U C85A U148A — lower, ≤ -4.2
- U53A A60C A64G C85G A97U A106U — lower, ≤ -4.2
- A52G U78C — higher, -0.764
- U53A A66U U78A C87U G94C — lower, ≤ -4.2
- U53G C54U C96G A113C G140U — lower, ≤ -4.2
- A52C G81A G86U — within 0.2 log units, -2.1
- U53A C54A G70U C85G G124C — lower, ≤ -4.2
- A52U C76U G140C — lower, ≤ -4.2
- U53A C96U C99U G143C — lower, ≤ -4.2
- U53A A122G U134A — lower, -3.02
- A52G G58C C79U A98U U101G C108A — lower, ≤ -4.2
- A52C G88U C105A A122G A150C — lower, ≤ -4.2
- A52G G62A C85U — higher, -1.4
- C54U C63G A66C G68U C69G C87G C96G — lower, ≤ -4.2
- C54A G81U U82A C108A C123U U134G A137C — lower, ≤ -4.2
- C54A C69U C72U A142C — lower, ≤ -4.2
- U53A G94A — higher, -1.61
- C54U C57A A64U C87A G141A — lower, ≤ -4.2
- A52C G84U — lower, -2.64
- A52C C96U U130A U144G A147C — lower, -3.6
- A52G U56G C85A C131U A137G — lower, -3.95
- U53G G68C A73C C85G C96U U102G C108G A119U U148C — lower, ≤ -4.2
- A52U A73G U102C — lower, ≤ -4.2
- C54G U82A — the same, -1.98
- A52G G59C C87A U135A U148A — lower, ≤ -4.2
- C54G C79G — lower, ≤ -4.2
- C54A C79U C93A A113U U127G — lower, ≤ -4.2
- U53A C96U — within 0.2 log units, -1.85
- C54A A73G C85G C99U U148C — lower, ≤ -4.2
- A52C C76G G94C — lower, ≤ -4.2
- A52C G58U G62C C96G G141U — lower, ≤ -4.2
- A52G C75A U82A C95A — lower, ≤ -4.2
- A52C C79A G81A G84U A110G G112C — lower, ≤ -4.2
- C54G C87A C108G A138U G143C — lower, ≤ -4.2
- U53A G141U — higher, 0.504
- U53A C85U C103G — lower, ≤ -4.2
- A52G C85A G140U — lower, ≤ -4.2
- C54G C87U A106U A137U G140U A142C — lower, ≤ -4.2
- U53A C99G A106U U127G C149U — lower, ≤ -4.2
- C54A G84A A142C — lower, -4.19
- U53A U55A A60U A66G C69G U78A C93U A150U — lower, ≤ -4.2
- C54G G70C C85U A110C — lower, ≤ -4.2
- C54A C57G U82G C85A A120C G136A U144A U148A — lower, ≤ -4.2
- U53A G80C A106C C125U — lower, ≤ -4.2
- A52C G67C A89C A106G A107G — lower, ≤ -4.2
- U53C C87U A98U G100C C116A G143U — lower, ≤ -4.2
- A52C C75A G84A C108G A110C — lower, ≤ -4.2
- C54A G88U U134C — lower, ≤ -4.2
- C54G C95U — lower, -2.35
- U53A A91U U102G G133U G141A — lower, ≤ -4.2
- C54G G88A C93G G94U A97U C118G C132A U146C — lower, ≤ -4.2
- A52U G67U C85A C125G — lower, ≤ -4.2
- U53A U90A C96U C114U A115C — lower, ≤ -4.2
- A52U A89C C96G C105G — lower, ≤ -4.2
- C54U A60U C87U G94U U101G U109C C116U C118U G152C — lower, ≤ -4.2
- U53A A73U C87G — lower, ≤ -4.2
- U53C A73G G84A U109G G140C — lower, ≤ -4.2
- U53A U101G C125A — higher, -0.788
- C54G C63A G81A G83A — lower, ≤ -4.2
- A52U C75U C87A C105G A137G U145C — lower, ≤ -4.2
- U53A C93U A97U U101C G143C — lower, ≤ -4.2
- C54A G59C G84A — higher, -0.321
- A52G G81C G88U C114U U134C G140C — lower, ≤ -4.2
- A52C U53C A66G U82G C87G — lower, ≤ -4.2
- A52C G143C — lower, -3.51
- A52U G83A C108G C129U — lower, ≤ -4.2
- A52C U55G G81A C87A C105G — lower, ≤ -4.2
- A52G A73U G84A — within 0.2 log units, -2.15
- U53C C93G C99G C118A G126A U146G — lower, ≤ -4.2
- U53G A64G C76A — lower, ≤ -4.2
- A52G U55A A66C C79A C85A — lower, ≤ -4.2
- A52C C85A A121G — within 0.2 log units, -1.8
- A52G C54U C95U U101A U102C A110U A142C A147C — lower, ≤ -4.2
- A52G U55A A91C A97U G112A A150U — lower, ≤ -4.2
- A52U G136A — higher, -0.592
